Experimental data: PMC4336329 (PLoS ONE, 2015)
Out of some 310,000 compounds screened, about 2,200 (0.71%) showed an effect of 50% or more. Effects have a minus sign here. The list shows a part of the results.

biological target: human ether-à-go-go-related gene (hERG) potassium channel (human, UniProt Q12809); experiment: primary screen, population patch clamp on CHO cells stably expressing hERG
Sequence (Q12809 whole entry, looked up): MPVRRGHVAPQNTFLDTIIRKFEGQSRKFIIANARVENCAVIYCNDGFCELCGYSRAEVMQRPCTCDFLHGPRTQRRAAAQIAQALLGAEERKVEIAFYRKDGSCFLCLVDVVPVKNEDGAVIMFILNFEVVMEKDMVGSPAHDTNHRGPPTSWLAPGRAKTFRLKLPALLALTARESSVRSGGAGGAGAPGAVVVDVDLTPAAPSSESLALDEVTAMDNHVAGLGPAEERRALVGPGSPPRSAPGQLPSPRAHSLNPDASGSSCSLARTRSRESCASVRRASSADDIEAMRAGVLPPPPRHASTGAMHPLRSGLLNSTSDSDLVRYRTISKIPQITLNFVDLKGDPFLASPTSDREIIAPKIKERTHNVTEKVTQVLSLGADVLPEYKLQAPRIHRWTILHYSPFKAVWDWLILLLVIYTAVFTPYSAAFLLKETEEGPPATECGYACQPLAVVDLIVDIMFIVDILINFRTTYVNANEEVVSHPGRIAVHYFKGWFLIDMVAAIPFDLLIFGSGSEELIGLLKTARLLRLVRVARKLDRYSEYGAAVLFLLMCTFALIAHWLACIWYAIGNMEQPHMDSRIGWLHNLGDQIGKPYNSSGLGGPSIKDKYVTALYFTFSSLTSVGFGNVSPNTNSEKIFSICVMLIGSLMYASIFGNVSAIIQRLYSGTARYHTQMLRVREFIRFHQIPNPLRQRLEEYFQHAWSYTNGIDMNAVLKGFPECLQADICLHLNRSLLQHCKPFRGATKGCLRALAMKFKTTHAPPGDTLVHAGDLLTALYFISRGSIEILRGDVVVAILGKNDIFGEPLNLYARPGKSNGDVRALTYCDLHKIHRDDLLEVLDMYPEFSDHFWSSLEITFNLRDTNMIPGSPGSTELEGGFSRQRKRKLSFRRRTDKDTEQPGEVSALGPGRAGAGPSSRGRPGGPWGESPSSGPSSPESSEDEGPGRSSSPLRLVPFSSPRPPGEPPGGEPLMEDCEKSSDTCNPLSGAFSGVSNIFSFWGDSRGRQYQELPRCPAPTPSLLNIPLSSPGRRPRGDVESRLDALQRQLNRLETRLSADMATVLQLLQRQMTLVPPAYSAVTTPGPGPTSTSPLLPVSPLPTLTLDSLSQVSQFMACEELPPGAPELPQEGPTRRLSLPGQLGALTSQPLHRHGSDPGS

| Compound | hERG current change (%, negative = inhibition) at 1uM |
| --- | --- |
| Cc1cccc(/C=N/NC(=O)Cn2nccc2C)n1 | 1.2% |
| Cc1ccc(N2CCN(C(=O)c3cn(CC4CCCCC4)nn3)C(C)C2)cc1 (stereo not shown) | 12.2% |
| CN1C(=O)Cc2cc(S(=O)(=O)N3CCOCC3)ccc21 | -4.57% |
| CN(C(=O)c1ccno1)c1nnc(-c2cccnc2)s1 | 0.134% |
| COc1cccc(-c2ccc3ncnc(NCc4cc(C)cs4)c3c2)c1 | 9.07% |
| COc1ccc(C)cc1NC(=O)CCCN1C(=O)CCC1=O | -3.97% |
| CCC(=O)n1nc(-c2cccnc2)nc1NCc1ccc(F)cc1 | 1.89% |
| COc1ccc(CNC(=O)COc2ccc(C(=O)c3ccc(F)cc3)cc2)cc1 | 0.17% |
| CCn1nc(C)c(NC(=O)c2ccc(Br)o2)c1C | 14.3% |
| O=S(=O)(Nc1nc2ccccc2nc1Cl)c1ccc(Cl)cc1 | 4.56% |
| Cc1ccc(NC(=O)CSc2ccccc2NC(=O)c2ccccc2Cl)cc1Cl | 9.04% |
| Cc1ccc(C(=O)N2CCC(C(=O)NCc3ccco3)CC2)cc1 | 3.53% |
| CC1(C)CC2CC(C)(CN2C(=O)C23CCC(C)(C(=O)C2)C3(C)C)C1 (stereo not shown) | 1.51% |
| Cc1cc(C)cc(N2C(=O)NC(=O)/C(=C\C=C\c3ccco3)C2=O)c1 | 7.28% |
| CC1CN(S(=O)(=O)c2cccc(C(=O)Nc3ccc(S(=O)(=O)NC4=NCCCCC4)cc3)c2)CC(C)O1 (stereo not shown) | 3.02% |
| COC(=O)c1ccccc1-c1ccc(/C=N/NC(=O)c2cc3ccccc3o2)o1 | -8.89% |
| O=C1C2CCCN2C(c2cccs2)N1c1ccc(F)cc1 (stereo not shown) | 9.99% |
| Cn1cc(Cl)c(C(=O)N(Cc2ccccc2)c2ccccn2)n1 | 5.97% |
| O=c1c2c([N+](=O)[O-])cc([N+](=O)[O-])cc2nc2ccccn12 | 9.36% |
| Cc1oc(-c2ccccc2)nc1C(=O)N1CCN(c2ccc(F)cc2)CC1 | 5.4% |
| Cc1cc(OC(=O)c2ccccc2)n(CCC#N)n1 | 9.76% |
| Cc1ccc(-c2nc(CS(=O)CC(=O)NC3CCCC3)c(C)o2)cc1 (stereo not shown) | 1.66% |

| Compound | hERG current change (%, negative = inhibition) at 1uM |
| --- | --- |
| CCOC(=O)c1cc(-c2ccccc2)n(CC(=O)Nc2cccc(OC)c2)c1C | 9.91% |
| Cn1cnnc1SCC(=O)Nc1ccccc1Oc1ccccc1 | 8.8% |
| O=[N+]([O-])c1ccccc1CN1CCN(c2ncccn2)CC1 | 16.5% |
| Cc1c(C(=O)C(=O)N2c3ccc(F)cc3CCC2C)c2ccccc2n1C (stereo not shown) | 30.6% |
| CC(C)N(C(=O)Cn1c(=O)oc2ccccc21)c1ccccc1 | 5.61% |
| COc1ccccc1OCC(=O)Nc1ccc(S(=O)(=O)Nc2nccs2)cc1 | 9.14% |
| CCCCCCCCCCCCCCCC[N+](C)(C)C.O.[OH-] | 15.3% |
| NC(=O)/C=C\c1cn(-c2ccccc2)nc1-c1ccc2c(c1)OCCO2 | 8.3% |
| CCOc1ccc(NC(=O)CCN2CCN(S(=O)(=O)c3ccc(OC)cc3)CC2)cc1 | 7.61% |
| CC(C(=O)NC1CCCC1)N1CCN(Cc2ccccc2)CC1 (stereo not shown) | 5.89% |
| COc1cc(C(=O)NCCC2=CCCCC2)cc(OC)c1OC | 5.62% |
| COCCCNC(=S)N(CCCO)Cc1cc2cc3c(cc2[nH]c1=O)OCCO3 | 11.9% |
| N#Cc1cc(Oc2cccnc2)c(Oc2cccnc2)cc1C#N | 4.02% |
| O=C1CCc2cc(S(=O)(=O)N3CCCC3C(=O)NC3CCCCCCC3)ccc2N1 (stereo not shown) | -20.3% |
| O=C(Nc1ccc(NC(=O)c2cc3ccccc3o2)cc1)c1ccc2c(c1)OCCO2 | 10.9% |
| COc1ccccc1NC(=O)Nc1nnc(C(C)c2ccccc2)s1 (stereo not shown) | 10.7% |
| Cc1cc(C(=O)NCCCN2CCCC2=O)cs1 | 20.1% |
| S=c1[nH]nc(-c2ccncc2)n1/N=C/C=C/c1ccccc1 | 13.9% |
| CC1CCCC(C)N1NC(=O)c1ccc(Cl)c(S(N)(=O)=O)c1 (stereo not shown) | -3.77% |
| NC(=O)c1ccccc1NC(=O)CN1CCN(Cc2ccc(Cl)cc2Cl)CC1 | -75.8% |
| NS(=O)(=O)c1cc2c(cc1Cl)NC(C1C[C@H]3C=C[C@@H]1C3)NS2(=O)=O (stereo partly shown) | 13.6% |
